Holding throughout (assay): Primary Screen for Target Class Profiling of Small Molecule Inhibitors of Methyltransferases
In test [1] the target is Glycine N-methyltransferase (Homo sapiens) (UniProt Q14749). Conditions: purified enzyme, MTase-Glo SAH luminescence; measured here: GNMT inhibition; at 40 µM; stronger effect = lower value. In short, it runs like this:
(§1)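 Each enzyme was assayed with SAM and its substrate. SAH formation detected by MTase-Glo luminescence; single-point 40 uM screen[…].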

The target of test [2] is Guanidinoacetate N-methyltransferase (Homo sapiens) (UniProt Q14353). To be noted: purified enzyme, MTase-Glo SAH luminescence; measured here: GAMT inhibition; at 40 µM; stronger effect = lower value. In a few lines: as §1
Test [3] has as its target Histamine N-methyltransferase (Homo sapiens) (UniProt P50135). Conditions: purified enzyme, MTase-Glo SAH luminescence; measured here: HNMT inhibition; at 40 µM; stronger effect = lower value. In short, it runs like this:
as §1

The target in test [4] is Nicotinamide N-methyltransferase (Homo sapiens) (UniProt P40261). Conditions: purified enzyme, MTase-Glo SAH luminescence; measured here: NNMT inhibition; at 40 µM; stronger effect = lower value. In a few lines:
as §1

For test [5], the target named is Phenylethanolamine N-methyltransferase (Homo sapiens) (UniProt P11086). Conditions: purified enzyme, MTase-Glo SAH luminescence; measured here: PNMT inhibition; at 40 µM; stronger effect = lower value. In a few lines: as §1

Some of the results follow. The main result of the screen is listed elsewhere. These columns were measured beside it and carry no call.
% is set by controls: 0 for no effect and ±100 for the full control effect.

In the case of `CCN1C(=O)c2c(C(=O)NCc3ccc(OC(C)C)cc3)ncn2CC1(C)C(=O)NC1CCCC1` (stereo not given), the activity change, negative = inhibition in test [1] was -11.8%; in test [2], 2.07%; in test [3], -4.34%; in test [4], -5.73%; in test [5], -5.69%.
For the compound `CCCn1c(=O)c2ccccc2n2c(=O)n(Cc3ccc(F)cc3Cl)nc12`, the activity change, negative = inhibition was 2.27% in test [1]; 1.19% in test [2]; 6.38% in test [3]; -8.96% in test [4]; 3.87% in test [5].
`CCCCN(CC)CCN1C(=O)c2ccc(-c3ccco3)n2CC1(C)C(=O)NC1CCCCCC1` (stereo not given): the activity change, negative = inhibition was -2.78% in test [1]; 0.148% in test [2]; -3.23% in test [3]; -10.9% in test [4]; -2.13% in test [5].
For the compound `O=C1NCCOCCN(C(=O)c2nccc3ccccc23)[C@H]2CCC[C@@H]12`, the activity change, negative = inhibition in test [1] was -4.92%; in test [2], -2.11%; in test [3] it was -1.4%; in test [4], -8.99%; in test [5] it was -19.3%.
Turning to `COCCCN1C(=O)c2cc(-c3ccc(C(C)C)cc3)nn2CC1(C)C(=O)NC1CCCCC1` (stereo not given), the activity change, negative = inhibition is -10% in test [1]; 3.9% in test [2]; 3.66% in test [3]; -2.98% in test [4]; 1.7% in test [5].
`O=C(NCC(=O)N1CCN(Cc2ccccc2)CC1)c1cccc(-c2ccsc2)c1`: the activity change, negative = inhibition in test [1] is -7.07%; in test [2], -1.53%; in test [3] it was -2.65%; in test [4], -6.61%; in test [5], -25.3%.
With `CN(CCN1C(=O)c2cc3sccc3n2CC1(C)C(=O)NC1CCCCCCC1)C1CCCCC1` (stereo not given), the activity change, negative = inhibition is 2.57% in test [1]; 3.62% in test [2]; 0.984% in test [3]; 8.34% in test [4]; -1.23% in test [5].
With `CC(C)OCCCn1c(=O)c2cc(Cl)ccc2n2c(SCc3ccccc3Cl)nnc12`, the activity change, negative = inhibition in test [1] came out at 1.26%; in test [2] it was 0%; in test [3] it was 3.43%; in test [4], 2.53%; in test [5], 4.09%.
For the compound `CNc1cccc(CCOc2ccc3c(c2)CN(CC(F)(F)F)C(=O)[C@H](CC(=O)O)C3)n1`, the activity change, negative = inhibition was -1.41% in test [1]; -5.17% in test [2]; 6.84% in test [3]; -19.2% in test [4]; -1.05% in test [5].
`O=[S+]1([O-])NC2(CCN(Cc3ccoc3)CC2)COc2ccccc21`: the activity change, negative = inhibition in test [1] was -2.72%; in test [2], -5.23%; in test [3] it was -4.92%; in test [4] it was -5.3%; in test [5], -3%.
On the same counts, the results for `CC1CC2(O)OC(=O)C3=C2C(CCC3)[C@@]12C[C@@H](c1ccoc1)OC2=O` (stereo not given in full) are 2.85%, 0.488%, 8.46%, -12.9% and -4.11%.
Take `CCc1noc(-c2nc(Cc3cccc(F)c3)no2)n1`: the activity change, negative = inhibition in test [1] was -2%; in test [2] it was -7.16%; in test [3] it was 1.89%; in test [4], -3.17%; in test [5], -0.48%.
On to `Cc1ccc(NC(=O)c2cc3n(n2)CC(C)(C(=O)NC2CCCCCC2)N(C)C3=O)cc1` (stereo not given), for which the activity change, negative = inhibition was 7.23% in test [1]; 3.15% in test [2]; 4.5% in test [3]; 6.81% in test [4]; -0.718% in test [5].
Take `c1ccc(CN2CCn3c4c(c5cc(C6CCCCC6)ccc53)CCCC42)cc1` (stereo not given): the activity change, negative = inhibition was 7.69% in test [1]; -1.36% in test [2]; 9.03% in test [3]; 12.5% in test [4]; 2.85% in test [5].
Take `CSc1ccc(CCNC(=O)CCc2nnc3ccc(NCCCN4CCCC4=O)nn23)cc1`: the activity change, negative = inhibition was 1.07% in test [1]; 1.82% in test [2]; 0.405% in test [3]; -7.88% in test [4]; 4.15% in test [5].
Regarding `COC(=O)c1ncn2c1C(=O)N(c1ccc(C(C)C)cc1)C(C)(C(=O)NCc1ccccc1)C2` (stereo not given), the activity change, negative = inhibition in test [1] was -14.3%; in test [2] it was -3.63%; in test [3], -9.45%; in test [4], -7.25%; in test [5], -9.63%.
With `CC1(C)CN(C(=O)c2ccnc(-n3cnnc3)c2)CC1(C)O` (stereo not given), the activity change, negative = inhibition in test [1] was -6.17%; in test [2] it was -10.3%; in test [3] it was -4.62%; in test [4], -12.5%; in test [5], -7.65%.
With `O=C(O)C1=CCCNC1`, the activity change, negative = inhibition was 3.19% in test [1]; 9.36% in test [2]; 8.53% in test [3]; -8.26% in test [4]; -2.05% in test [5].
For `COc1cc(-c2nn(C3CCC(N4CCN(C(C)=O)CC4)CC3)c3ncnc(N)c23)ccc1NC(=O)c1cc2ccccc2n1C` (stereo not given), the activity change, negative = inhibition in test [1] is -4.9%; in test [2] it was 4.28%; in test [3], -3.94%; in test [4], -16.3%; in test [5], -7%.

For the origin of these results see PubChem BioAssay AID1745853 (National Center for Advancing Translational Sciences (NCATS), 2022).
